Test results: PubChem BioAssay (NCATS)
Inconclusive results, whose numbers are uncertain, are shown with a selection of clear calls. For some assays here: Potencies beside an inconclusive call are fits to weak or partial responses and may not hold up. Active and inactive are the calls of the source. Calls follow the shape of the dose curve; as a rule, active = well fitted curve in the direction sought with a large enough effect; inconclusive = small, poorly fitted or top-dose-only effect, or another doubt; inactive = no such curve, though single readings can be large; an effect the other way counts as inactive or inconclusive.

Experiments:
[1] = target: Ubiquitin carboxyl-terminal hydrolase 1 (Homo sapiens) (UniProt O94782); experiment: Inhibitors of USP1/UAF1: Pilot qHTS (AID 504865);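 also: rhodamine fluorescence freed from ubiquitin-rhodamine substrate followed over time; top concentration of the series differs between compounds; % is scaled to controls: 0 for no effect and ±100 for the full control effect; nearly all actives have a fitted effect of over 35% in size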
Procedure, shortened: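 Enzyme-free wells gave the negative control, while test wells held 1nM USP1/UAF1 preincubated with compound for 15 min at room temperature. Ub-Rho at 150nM final started the reaction, and fluorescence at 480/540 nm was recorded kinetically.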

[2] = qHTS of pediatric cancer cell lines to identify multiple opportunities for drug repurposing: Primary screen for SK-N-SH cells (AID 1347098); conditions: SK-N-SH viability, CellTiter-Glo luminescence, 48 h; activity change, negative = cytotoxic: at 57 µM (top of the series);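 also: DMSO served as neutral control and bortezomib at 2.3 µM as positive control; % is scaled to controls: 0 for no effect and ±100 for the full control effect; nearly all actives have a fitted effect of over 65% in size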
Procedure, shortened: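 Cells (500-1,000/well) rested 5 h, then received compounds for 48 h; metabolically active cells were measured by CellTiter-Glo luminescence. Final concentrations spanned up to 46 µM (MIPE, 11-point) or 0.59 nM-46 µM (NPC, 8-point) in primary screens, 11-point in follow-ups.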

[3] = qHTS of pediatric cancer cell lines to identify multiple opportunities for drug repurposing: Primary screen for Rh30 cells (AID 1347107); also: % is scaled to controls: 0 for no effect and ±100 for the full control effect; nearly all actives have a fitted effect of over 75% in size
Procedure, shortened: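 Viability after 48 h compound treatment at 37C, 500-1,000 cells/well, read as ATP luminescence with CellTiter-Glo. Primary screens used 11-point (MIPE, 0.78 nM-46 µM) or 8-point (NPC, 0.59 nM-46 µM) final concentrations; follow-up screens used 11-point dilutions.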

[4] = Primary qHTS for small molecule stabilizers of the endoplasmic reticulum resident proteome: Secreted ER Calcium Modulated Protein (SERCaMP) assay (AID 1508630); conditions: SH-SY5Y GLuc-SERCaMP (Gaussia luciferase released on ER calcium loss) secretion, thapsigargin, luminescence; activity change, negative = inhibition: at 38.4 µM (top of the series); also: potency is read from the fitted curve at half-maximal effect
Procedure, shortened: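 The SH-SY5Y reporter protocol was run at 3 concentrations up to 38.3 uM (primary) or 11 concentrations (follow-up): 16 h compound, 100 nM thapsigargin for 4 h, then extracellular luciferase luminescence.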

7G8 = experiment: qHTS profiling for inhibitors of Plasmodium falciparum proliferation (AID 504749); also: nearly all actives have a fitted effect of over 60% in size; also: potency is read from the fitted curve at half-maximal effect; conditions: P. falciparum in erythrocytes, SYBR Green DNA, 72 h; series mostly up to 28.7 µM
Procedure, shortened: (§1)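 SYBR Green fluorescence (ex 485 nm, em 535 nm) reports parasite DNA after 72 h compound exposure of infected red cells at 0.3% parasitemia, 2.5% hematocrit; signal normalized to 0.29 uM artemisinin and vehicle wells.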

CP315 = experiment: as above; conditions: P. falciparum in erythrocytes, SYBR Green DNA, 72 h; series mostly up to 28.7 µM
Procedure, shortened: as §1

P93_24 = experiment: as above; conditions: P. falciparum in erythrocytes, SYBR Green DNA, 72 h; series mostly up to 28.7 µM
Procedure, shortened: as §1

W2 = experiment: as above; conditions: P. falciparum in erythrocytes, SYBR Green DNA, 72 h; series mostly up to 28.7 µM
Procedure, shortened: as §1

HEK293 = experiment: Cytotoxic Profiling of Annotated Libraries Using Quantitative High-Throughput Screening (AID 1296008); conditions: Five cell lines viability, CellTiter-Glo ATP luminescence, 48-72 h; max response: active compounds read low; also: nearly all actives have a fitted effect of over 60% in size; also: potency is read from the fitted curve at half-maximal effect; as to max response: % is scaled to controls: 0 for no effect and ±100 for the full control effect
Procedure, shortened: (§2)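 Cells exposed to compounds for 48 or 72 hr at 37 degrees Celsius. Viability read as ATP-coupled luminescence with CellTiter-Glo after 10 min at room temperature.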

WaGa = experiment: qHTS assay to identify novel small-molecules to repurpose for Merkel cell carcinoma treatment (AID 1296009); conditions: MCC and control cell lines, CellTiter-Glo viability, 72 h; series mostly up to 46 µM; also: % is scaled to controls: 0 for no effect and ±100 for the full control effect; nearly all actives have a fitted effect of over 60% in size
Procedure, shortened: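 CellTiter-Glo luminescence after 72 hr compound exposure at 37 degree celsius gave cell viability. Libraries NPC and MIPE were run as 8- and 11-point dose responses; RLUs normalized to DMSO (negative) and no-cell (cytotoxicity) controls.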

OV90 = experiment: Primary qHTS to identify gynecologic anti-cancer compounds using libraries of approved drugs and bioactive compounds (AID 1345084); conditions: Gynecologic cancer cell panel viability, ATPlite luminescence, 48 h; series mostly up to 57.5 µM; also: potency is read from the fitted curve at half-maximal effect; nearly all actives have a fitted effect of over 55% in size
Procedure, shortened: (§3)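 ATP-based viability (ATPlite), 1,000 cells/well, 16 h pre-incubation, 48 h compound at 37 C, 5% CO2, 15 min RT before read.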

[5] = Primary qHTS for inhibitors of nuclear receptor binding SET domain protein 2 (NSD2) in an RCH-ACV wild type WT cells (2C) (AID 1645877); conditions: activity change, negative = cell killing: at 44.9 µM (top of the series); also: potency is read from the fitted curve at half-maximal effect; nearly all actives have a fitted effect of over 70% in size
HaCat = experiment: Cytotoxic Profiling of Annotated Libraries Using Quantitative High-Throughput Screening (AID 1296008); conditions: Five cell lines viability, CellTiter-Glo ATP luminescence, 48-72 h; max response: active compounds read low; also: nearly all actives have a fitted effect of over 60% in size; also: potency is read from the fitted curve at half-maximal effect; as to max response: % is scaled to controls: 0 for no effect and ±100 for the full control effect
Procedure, shortened: as §2

KB-3-1 = experiment: as above; conditions: Five cell lines viability, CellTiter-Glo ATP luminescence, 48-72 h; max response: active compounds read low
Procedure, shortened: as §2

C33A = experiment: Primary qHTS to identify gynecologic anti-cancer compounds using libraries of approved drugs and bioactive compounds (AID 1345084); conditions: Gynecologic cancer cell panel viability, ATPlite luminescence, 48 h; series mostly up to 57.5 µM; also: potency is read from the fitted curve at half-maximal effect; nearly all actives have a fitted effect of over 55% in size
Procedure, shortened: as §3

Es-2 = experiment: as above; conditions: Gynecologic cancer cell panel viability, ATPlite luminescence, 48 h; series mostly up to 57.5 µM
Procedure, shortened: as §3

HeLa = experiment: as above; conditions: Gynecologic cancer cell panel viability, ATPlite luminescence, 48 h; series mostly up to 57.5 µM
Procedure, shortened: as §3

Hek293T = experiment: as above; conditions: Gynecologic cancer cell panel viability, ATPlite luminescence, 48 h, control line for the selectivity index; series mostly up to 57.5 µM
Procedure, shortened: as §3

PA-1 = experiment: as above; conditions: Gynecologic cancer cell panel viability, ATPlite luminescence, 48 h; series mostly up to 57.5 µM
Procedure, shortened: as §3

SKOV3 = experiment: as above; conditions: Gynecologic cancer cell panel viability, ATPlite luminescence, 48 h; series mostly up to 57.5 µM
Procedure, shortened: as §3

Tov-21-G = experiment: as above; conditions: Gynecologic cancer cell panel viability, ATPlite luminescence, 48 h; activity change, negative = cytotoxicity: at 57.5 µM (top of the series)
Procedure, shortened: as §3

Tov112D = experiment: as above; conditions: Gynecologic cancer cell panel viability, ATPlite luminescence, 48 h; activity change, negative = cytotoxicity: at 57.5 µM (top of the series)
Procedure, shortened: as §3
Tags tell the direction and shape of the fitted curve.

Sequence of UniProt O94782 (O94782 whole entry, looked up): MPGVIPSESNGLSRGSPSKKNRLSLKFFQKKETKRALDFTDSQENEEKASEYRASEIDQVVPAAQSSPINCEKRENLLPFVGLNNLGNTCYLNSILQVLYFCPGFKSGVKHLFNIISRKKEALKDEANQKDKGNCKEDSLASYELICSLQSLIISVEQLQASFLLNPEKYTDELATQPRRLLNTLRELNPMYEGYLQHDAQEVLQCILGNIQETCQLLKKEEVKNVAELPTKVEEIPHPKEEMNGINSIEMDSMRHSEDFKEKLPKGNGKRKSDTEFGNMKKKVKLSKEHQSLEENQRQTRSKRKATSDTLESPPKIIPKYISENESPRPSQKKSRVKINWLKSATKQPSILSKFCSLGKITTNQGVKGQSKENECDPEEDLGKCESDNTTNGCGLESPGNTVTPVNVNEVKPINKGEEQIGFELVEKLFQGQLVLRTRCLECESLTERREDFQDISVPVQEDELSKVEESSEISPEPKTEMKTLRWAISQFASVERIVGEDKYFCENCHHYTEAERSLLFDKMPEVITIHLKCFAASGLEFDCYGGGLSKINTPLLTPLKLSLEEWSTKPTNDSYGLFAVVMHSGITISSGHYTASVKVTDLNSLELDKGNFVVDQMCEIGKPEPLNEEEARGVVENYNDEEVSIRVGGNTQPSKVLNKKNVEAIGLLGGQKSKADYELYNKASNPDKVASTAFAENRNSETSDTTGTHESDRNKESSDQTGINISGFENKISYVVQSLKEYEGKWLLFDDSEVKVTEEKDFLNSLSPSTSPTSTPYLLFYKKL

CC(=O)Oc1cccc(O)c1
inactive: Potency [1] | Potency [2] | Potency [3] | Potency (CP315) | Potency (W2) | max response (HEK293) 2.67% | Potency (WaGa)
inconclusive: Potency [4] 1 µM [inhibitor, full curve] | Potency (7G8) 12.6 µM [activator, single point] | Potency (P93_24) 3.55 µM [inhibitor, single point] | Potency (OV90) 1.58 µM [cytotoxic, single point]

OC1C=C2C3CN(Cc4cc5c(cc43)OCO5)C2CC1O (stereo not drawn)
active: Potency [5] 7.28 µM | Potency (Es-2) 25.1 µM | Potency (Hek293T) 8.91 µM | Potency (PA-1) 14.1 µM
inconclusive: Potency (HaCat) 18.4 µM [inhibitor, single point] | Potency (KB-3-1) 23.1 µM [inhibitor, single point] | Potency (C33A) 12.6 µM [cytotoxic, partial curve] | Potency (HeLa) 39.8 µM [cytotoxic, single point] | Potency (OV90) 22.4 µM [cytotoxic, single point] | Potency (SKOV3) 11.2 µM [cytotoxic, partial curve] | Potency (Tov-21-G) 12.6 µM [cytotoxic, partial curve, poor fit] | Potency (Tov112D) 15.8 µM [cytotoxic, partial curve, poor fit]
